# “And” between values parts separate entries of the source, which are not always exact repeats. Equal entries are not always repeated. The campaign covered roughly 350,000 compounds. About 260 (0.074%) were called active. The shares of active, inactive and inconclusive entries below differ from those in the screen. The call rests on the fitted dose curve; in most records, active means well fitted inhibition curve with a large enough effect; inconclusive means small, poorly fitted or top-dose-only effect; inactive means no such curve, though single readings can be large or run the other way. Potencies of inconclusive entries are doubtful fits and often do not repeat.
# Target: Ferritin light chain (Equus caballus) (UniProt P02791)
# Assay: qHTS Assay for Identification of Novel General Anesthetics; further: nearly all actives have a fitted effect of over 20% in size
# Conditions: apoferritin/1-aminoanthracene competitive binding, fluorescence; activity change, negative = displacement: at 77.5 µM (top of the series)
# Outline: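 Read-out: endpoint 1-AMA fluorescence, excitation 380 nm and emission 535 nm, after compounds sit 10 min at room temperature with 10 uM horse-spleen apoferritin in 50% saturated 1-AMA/PBS. Values come from four-parameter Hill fits.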
# On the % scale 0 is the no-effect control and ±100 the full control effect; potency means the concentration at half of the fitted maximal effect; tags describe the fitted curve by direction and shape.
# Chain of UniProt P02791 (P02791 whole entry, looked up): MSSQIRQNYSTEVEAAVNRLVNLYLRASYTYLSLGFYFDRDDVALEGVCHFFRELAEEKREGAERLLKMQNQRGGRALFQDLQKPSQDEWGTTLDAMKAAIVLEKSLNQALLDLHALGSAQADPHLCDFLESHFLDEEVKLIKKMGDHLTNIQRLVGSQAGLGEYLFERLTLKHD
SMILES,"activity change, negative = displacement",Potency
Cc1cccc(N(C(=O)c2ccco2)C(C(=O)NC2CCCC2)c2ccco2)c1C (stereo not given),inactive: -22%,
CCC(C(=O)Nc1ccc(C(C)C)cc1)c1ccccc1 (stereo not given),,"inconclusive: 11.2 µM [inhibitor, partial curve]"
Cc1ccc(N2C(=O)C3CCC(C)(C2=O)C3(C)C)cc1C (stereo not given),,"inconclusive: 7.94 µM [inhibitor, partial curve]"
CCC(c1ccc(O)cc1)C(CC)c1ccc(O)cc1 (stereo not given),,"inconclusive: 56.2 µM [inhibitor, single point]"
Oc1ccc2ccccc2c1C=NCc1cn2ccsc2n1,,"inconclusive: 28.2 µM [inhibitor, partial curve]"
CCCc1nn2c(=O)cc(COC(=O)C3CCCCC3)nc2s1,,"inconclusive: 50.1 µM [inhibitor, single point]"
Cc1noc(/C=C/N(C)C)c1S(=O)(=O)N(C)Cc1ccc(F)cc1,inactive: -17.3%,
Cc1oc(-c2ccccc2F)nc1CSCC(=O)NCc1ccc2c(c1)OCO2,,"inconclusive: 25.1 µM [inhibitor, partial curve]"
Cc1nn(CC(=O)N2CCN(Cc3ccccc3)CC2)c(=O)c2ccccc12,,"inconclusive: 35.5 µM [inhibitor, partial curve]"
CN1CCN(C(=O)c2ccccc2NC(=O)c2cccs2)CC1,inactive: -9.87%,
CCCc1[nH]nc2c1C(c1ccc(OC)c(CSC3=NCCS3)c1)C(C#N)=C(N)O2 (stereo not given),,"inconclusive: 17.8 µM [inhibitor, partial curve]"
COc1ccc(-n2nc(C(=O)NCC(=O)NC3CCCC(C)C3C)c3ccccc3c2=O)cc1 (stereo not given),,"inconclusive: 22.4 µM [inhibitor, partial curve]"
CCOC(=O)c1ccc(NC(=O)CN(Cc2ccc(Cl)cc2)S(C)(=O)=O)cc1,,"inconclusive: 28.2 µM [inhibitor, single point]"
COc1ccccc1NC(=O)c1ccc(C(=O)c2ccccc2)o1,,"inconclusive: 22.4 µM [inhibitor, partial curve]"
CC(C)c1cc(N=NC(N)=O)cc(C(C)C)c1O,,"inconclusive: 28.2 µM [inhibitor, partial curve]"
Cc1ccc(Cl)cc1NC(=O)Nc1cn(CC(C)C)c(=O)c2ccccc12,,"inconclusive: 14.1 µM [inhibitor, partial curve]"
O=C(Nc1ccccc1F)c1nc(SCc2ccccc2F)ncc1Cl,,"inconclusive: 28.2 µM [inhibitor, partial curve]"
CCNC(=O)CSc1nc(-c2ccc(F)cc2)cs1,inactive: -6.56%,
CC(C)(C)c1cnnn1-c1ccc(NC(=O)c2ccc3c(c2)OCO3)cc1,,"inconclusive: 31.6 µM [inhibitor, single point]"
Nc1ccccc1Nc1cccc(C(F)(F)F)c1,,"inconclusive: 15.8 µM [inhibitor, partial curve]"
CN(C)S(=O)(=O)c1cccc(NC(=S)NN=C(Cc2ccccc2)Cc2ccccc2)c1,,"inconclusive: 44.7 µM [inhibitor, partial curve]"
CCOC(=O)N1CCN(CC(=O)Nc2c(C(=O)OC)[nH]c3ccccc23)CC1,inactive: -10.4%,

SMILES,"activity change, negative = displacement",Potency
CCc1ccc(S(=O)(=O)c2n[nH]n3c2nc(=O)c2ccccc23)cc1,inactive: -3.42%,
Cc1c2cccn2cc[n+]1C,inactive: 69.7%,
O=C1CC(c2cccc(F)c2)SC(N(c2ccccc2)c2ccccc2)=N1 (stereo not given),,"inconclusive: 20 µM [inhibitor, partial curve]"
Cc1ccc(/C=N/N2CCN(c3ccccn3)CC2)o1,inactive: -1.69%,
O=C(O)CN(c1ccccn1)S(=O)(=O)c1ccc(Cl)cc1,inactive: 4.4%,
Cc1nn(-c2ccccc2)c(C)c1NC(=O)COc1ccc2ccccc2c1,,"inconclusive: 31.6 µM [inhibitor, partial curve]"
Cc1cc(C)cc(NS(=O)(=O)c2ccc3[nH]cc(C(=O)NCc4ccco4)c(=O)c3c2)c1,,"inconclusive: 28.2 µM [inhibitor, partial curve]"
CCOC(=O)C1=C(C)N=C2SC(C(=O)OC)=CC(=O)N2C1c1ccc(OC)cc1 (stereo not given),,"inconclusive: 12.6 µM [inhibitor, partial curve]"
Cc1ccc(-c2cc(C(=O)Nc3cc(C)on3)c3ccccc3n2)c(C)c1,,"inconclusive: 10 µM [inhibitor, partial curve]"
COc1cccc(NC(=O)CN(C)CC(=O)Nc2ccc(Cl)cc2[N+](=O)[O-])c1,,"inconclusive: 25.1 µM [inhibitor, partial curve]"
CC1Cc2ccccc2N1C(=O)CSc1nnc(N)s1 (stereo not given),,"inconclusive: 28.2 µM [inhibitor, partial curve]"
CCn1c(SCC(=O)NC(=O)NCc2ccco2)nc2sc(C)c(C)c2c1=O,,"inconclusive: 25.1 µM [inhibitor, partial curve]"
COc1ccc(CN2CCCC(C(=O)c3ccc4c(c3)OCO4)C2)c(F)c1 (stereo not given),,"inconclusive: 22.4 µM [inhibitor, partial curve]"
COc1cc(NC(=O)CSc2nc3nc(C)c(Cc4ccccc4)c(C)n3n2)cc(OC)c1OC,,"inconclusive: 25.1 µM [inhibitor, partial curve]"
N#Cc1c(-c2cccs2)nc(SCc2ccc(Cl)cc2)[nH]c1=O,,"inconclusive: 25.1 µM [inhibitor, partial curve]"
Cc1ccc(NC(=O)NC(=O)CN2C(=O)NC3(CCc4ccccc43)C2=O)c(C)c1 (stereo not given),,"inconclusive: 22.4 µM [inhibitor, partial curve]"
COc1ccc(C2/C(=C(\O)c3ccc4c(c3)CC(C)O4)C(=O)C(=O)N2Cc2cccnc2)c(OC)c1 (stereo not given),inactive: -23%,
COc1cc(-c2nnc(SCC(=O)Nc3cccc(C#N)c3)o2)cc(OC)c1OC,,"inconclusive: 1.26 µM [inhibitor, full curve]"
CCOC(=O)Cc1nnc(NC(=O)CSc2nnc3c(n2)[nH]c2ccccc23)s1,,"inconclusive: 22.4 µM [inhibitor, partial curve]"
C/C(=N\NC(=O)CNC(=O)c1ccc(Br)cc1)c1ccco1,,"inconclusive: 5.62 µM [inhibitor, full curve]"
CCc1ccc(CNC(=O)c2cnc3sc(N(CC)CC)nn3c2=O)cc1,inactive: -10.3%,
O=C(NCc1ccc2c(c1)OCO2)C12CC3CC(CC(C3)C1)C2,,"inconclusive: 25.1 µM [inhibitor, partial curve]"

SMILES,"activity change, negative = displacement",Potency
CN(c1ccc([N+](=O)[O-])cc1C(N)=O)C1CCCCC1,,"inconclusive: 25.1 µM [inhibitor, partial curve]"
Cc1nc(-c2ccc(NC(=O)c3ccc(Br)o3)cc2)cs1,,"inconclusive: 25.1 µM [inhibitor, single point]"
COc1ccccc1NC(=O)CC1SC(=N)N(c2ccccc2)C1=O (stereo not given),,"inconclusive: 39.8 µM [inhibitor, single point]"
COc1ccccc1NS(=O)(=O)c1cccc(C(=O)NN)c1,,"inconclusive: 8.91 µM [inhibitor, full curve, poor fit]"
COc1cccc(/C=C2\SC(=O)N(CCC(=O)N3CCCCC3CCO)C2=O)c1 (stereo not given),,"inconclusive: 25.1 µM [inhibitor, partial curve]"
CC(C)c1cnc2c(c1SCC(=O)Nc1cccc([N+](=O)[O-])c1)c(=O)n(C)c(=O)n2C,,"inconclusive: 11.2 µM [inhibitor, partial curve]"
CCn1c(SCC(=O)Nc2ccc(C)c(C)c2)nnc1-c1nonc1NC(C)=O,,"inconclusive: 15.8 µM [inhibitor, partial curve]"
CC(=O)c1cccc(NC(=O)c2cc(-c3ccc4c(c3)OCCO4)on2)c1,,"inconclusive: 12.6 µM [inhibitor, partial curve]"
NC(=O)CC(NC(=O)c1ccccc1)c1ccc(NCCCN2CCCC2=O)c([N+](=O)[O-])c1 (stereo not given),,"inconclusive: 39.8 µM [inhibitor, partial curve]"
Cc1cc(C)n(-c2ccc(C(=O)OCC(=O)Nc3ccc([N+](=O)[O-])cc3)cc2)n1,,"inconclusive: 28.2 µM [inhibitor, partial curve]"
O=C(O)c1ccc(Cl)c(S(=O)(=O)N(Cc2ccccc2)c2ccccc2)c1,inactive: 1.7%,
Cc1ncc(C[n+]2csc(CCOC(=O)C34CC5CC(CC(C5)C3)C4)c2C)c(N)n1,,"inconclusive: 28.2 µM [inhibitor, single point]"
O=C(CSc1ccccn1)Nc1cccc(NC(=O)CSc2ccccn2)n1,inactive: -12.4%,
O=C(CNC(=O)C1CCCCC1)NNC(=O)c1ccc(Cl)cc1Cl,,"inconclusive: 22.4 µM [inhibitor, partial curve]"
COc1ccccc1CNC(=O)C(Cc1ccccc1)NS(=O)(=O)c1ccc2c(c1)CCN2C(C)=O (stereo not given),inactive: -7.58%,
COCCn1c(C)cc(C2=NNC(=Nc3ccc(F)cc3)SC2)c1C,,"inconclusive: 31.6 µM [inhibitor, single point]"
CNC(=O)c1[nH]cnc1C(=O)N[C@@H](Cc1ccccc1)C(=O)OC(C)(C)C,,"inconclusive: 25.1 µM [inhibitor, partial curve]"
CCCCOc1ccc(C(=O)NCCc2csc3nc(-c4ccccc4F)nn23)cc1,,"inconclusive: 50.1 µM [inhibitor, single point]"
CC(=O)OC/C=C(C)/C=C/C=C(C)/C=C/C1=C(C)CCCC1(C)C,,"inconclusive: 31.6 µM [inhibitor, single point] and inconclusive: 28.2 µM [inhibitor, single point]"
O=S(=O)(c1ccc(NC(=S)NN=C2CCCCC2)cc1)N1CCOCC1,,"inconclusive: 20 µM [inhibitor, partial curve]"
CS(=O)(=O)N1CCN(CC2CC3C=CC2C3)CC1 (stereo not given),inactive: -2.14%,

# Reference: PubChem BioAssay AID485281 (National Center for Advancing Translational Sciences (NCATS), 2010)
